± gives the standard deviation of the averaged measurements. Laboratory Escherichia coli strains with one amino-acid change in an essential protein, pooled on minimal glucose agar with carbenicillin or gentamicin at twice the control MIC (plus kanamycin and chloramphenicol for the plasmids), 48 h. Fold change of barcode share against drug-free plates; higher = less susceptible. Active = above 20 in both replicates (the paper's putatively resistant). '<' = one read or none on drug, '>' = one read or none on a drug-free plate. Shares are relative, so most strains fall below 1 when a few take over. Listed are strains with at least 15 reads on both drug-free plates, and hits; most hits rest on fewer reference reads. Replicate rank correlation about 0.5. Edits are read from barcodes.
B1: infB V744Q (protein)
chain: MTDVTIKTLAAERQTSVERLVQQFADAGIRKSADDSVSAQEKQTLIDHLNQKNSGPDKLTLQRKTRSTLNIPGTGGKSKSVQIEVRKKRTFVKRDPQEAERLAAEEQAQREAEEQARREAEESAKREAQQKAEREAAEQAKREAAEQAKREAAEKDKVSNQQDDMTKNAQAEKARREQEAAELKRKAEEEARRKLEEEARRVAEEARRMAEENKWTDNAEPTEDSSDYHVTTSQHARQAEDESDREVEGGRGRGRNAKAARPKKGNKHAESKADREEARAAVRGGKGGKRKGSSLQQGFQKPAQAVNRDVVIGETITVGELANKMAVKGSQVIKAMMKLGAMATINQVIDQETAQLVAEEMGHKVILRRENELEEAVMSDRDTGAAAEPRAPVVTIMGHVDHGKTSLLDYIRSTKVASGEAGGITQHIGAYHVETENGMITFLDTPGHAAFTSMRARGAQATDIVVLVVAADDGVMPQTIEAIQHAKAAQVPVVVAVNKIDKPEADPDRVKNELSQYGILPEEWGGESQFVHVSAKAGTGIDELLDAILLQAEVLELKAVRKGMASGAVIESFLDKGRGPVATVLVREGTLHKGDIVLCGFEYGRVRAMRNELGQEVLEAGPSIPVEILGLSGVPAAGDEVTVVRDEKKAREVALYRQGKFREVKLARQQKSKLENMFANMTEGEVHEVNIVLKADVQGSVEAISDSLLKLSTDEVKVKIIGSGVGGITETDATLAAASNAILQGFNVRADASARKVIEAESLDLRYYSVIYNLIDEVKAAMSGMLSPELKQQIIGLAEVRDVFKSPKFGAIAGCMVTEGVVKRHNPIRVLRDNVVIYEGELESLRRFKDDVNEVRNGMECGIGVKNYNDVRTGDVIEVFEIIEIQRTIA
B2: infB V800A (protein)
chain: MTDVTIKTLAAERQTSVERLVQQFADAGIRKSADDSVSAQEKQTLIDHLNQKNSGPDKLTLQRKTRSTLNIPGTGGKSKSVQIEVRKKRTFVKRDPQEAERLAAEEQAQREAEEQARREAEESAKREAQQKAEREAAEQAKREAAEQAKREAAEKDKVSNQQDDMTKNAQAEKARREQEAAELKRKAEEEARRKLEEEARRVAEEARRMAEENKWTDNAEPTEDSSDYHVTTSQHARQAEDESDREVEGGRGRGRNAKAARPKKGNKHAESKADREEARAAVRGGKGGKRKGSSLQQGFQKPAQAVNRDVVIGETITVGELANKMAVKGSQVIKAMMKLGAMATINQVIDQETAQLVAEEMGHKVILRRENELEEAVMSDRDTGAAAEPRAPVVTIMGHVDHGKTSLLDYIRSTKVASGEAGGITQHIGAYHVETENGMITFLDTPGHAAFTSMRARGAQATDIVVLVVAADDGVMPQTIEAIQHAKAAQVPVVVAVNKIDKPEADPDRVKNELSQYGILPEEWGGESQFVHVSAKAGTGIDELLDAILLQAEVLELKAVRKGMASGAVIESFLDKGRGPVATVLVREGTLHKGDIVLCGFEYGRVRAMRNELGQEVLEAGPSIPVEILGLSGVPAAGDEVTVVRDEKKAREVALYRQGKFREVKLARQQKSKLENMFANMTEGEVHEVNIVLKADVQGSVEAISDSLLKLSTDEVKVKIIGSGVGGITETDATLAAASNAILVGFNVRADASARKVIEAESLDLRYYSVIYNLIDEVKAAMSGMLSPELKQQIIGLAEARDVFKSPKFGAIAGCMVTEGVVKRHNPIRVLRDNVVIYEGELESLRRFKDDVNEVRNGMECGIGVKNYNDVRTGDVIEVFEIIEIQRTIA
B3: infC L152A (protein)
chain: MKGGKRVQTARPNRINGEIRAQEVRLTGLEGEQLGIVSLREALEKAEEAGVDLVEISPNAEPPVCRIMDYGKFLYEKSKSSKEQKKKQKVIQVKEIKFRPGTDEGDYQVKLRSLIRFLEEGDKAKITLRFRGREMAHQQIGMEVLNRVKDDAQELAVVESFPTKIEGRQMIMVLAPKKKQ
B4: infC M172A (protein)
chain: MKGGKRVQTARPNRINGEIRAQEVRLTGLEGEQLGIVSLREALEKAEEAGVDLVEISPNAEPPVCRIMDYGKFLYEKSKSSKEQKKKQKVIQVKEIKFRPGTDEGDYQVKLRSLIRFLEEGDKAKITLRFRGREMAHQQIGMEVLNRVKDDLQELAVVESFPTKIEGRQMIAVLAPKKKQ
B5: infC M172W (protein)
chain: MKGGKRVQTARPNRINGEIRAQEVRLTGLEGEQLGIVSLREALEKAEEAGVDLVEISPNAEPPVCRIMDYGKFLYEKSKSSKEQKKKQKVIQVKEIKFRPGTDEGDYQVKLRSLIRFLEEGDKAKITLRFRGREMAHQQIGMEVLNRVKDDLQELAVVESFPTKIEGRQMIWVLAPKKKQ
B6: infC M172Q (protein)
chain: MKGGKRVQTARPNRINGEIRAQEVRLTGLEGEQLGIVSLREALEKAEEAGVDLVEISPNAEPPVCRIMDYGKFLYEKSKSSKEQKKKQKVIQVKEIKFRPGTDEGDYQVKLRSLIRFLEEGDKAKITLRFRGREMAHQQIGMEVLNRVKDDLQELAVVESFPTKIEGRQMIQVLAPKKKQ

The proteins below were run against Escherichia coli (laboratory strain) (assay: barcode share on antibiotic plates over drug-free plates; higher = less susceptible). Conditions: antibiotic: carbenicillin; 2× MIC (3.1 µg/mL).
Protocol: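 A pool of E. coli strains, each edited to carry one amino-acid change in an essential protein, was grown for 48 h on minimal glucose agar with or without antibiotic; strain barcodes were sequenced; mean of two replicates.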
In the case of B1, the “fold change of barcode share” value is reported as 0.348 ± 0.12. In the case of B2, the “fold change of barcode share” value is reported as 0.41 ± 0.029. With B3 the “fold change of barcode share” value was 0.32 ± 0.096. For B4, the “fold change of barcode share” value was 0.269 ± 0.043. For B5, the “fold change of barcode share” value was 0.199 ± 0.077. B6 was tested, and the “fold change of barcode share” value was 0.312 ± 0.0051.

Same assay, conditions: antibiotic: gentamicin; 2× MIC (MIC 0.45 µg/mL)
In the case of B1, the “fold change of barcode share” value is reported as less than 0.00777. B2 was tested, and the “fold change of barcode share” value was 0.0234 ± 0.0085. With B4 the “fold change of barcode share” value was less than 0.00434. With B5 the “fold change of barcode share” value was 0.00757 ± 0.0077. B6 was tested, and the “fold change of barcode share” value was 0.0106 ± 0.0027.
